# According to the supplement of paper PMC12217912:
# The other results are listed elsewhere or left out. The full chains were built here from the parent and the listed change. Values near 0.05 are background.
# B1: TEV protease; numbered along this chain (parent)
# chain: MGESLFKGPRDYNPISSSICHLTNESDGHTTSLYGIGFGPFIITNKHLFRRNNGTLVVQSLHGVFKVKDTTTLQQHLVDGRDMIIIRMPKDFPPFPQKLKFREPQREERICLVTTNFQTKSMSSMVSDTSCTFPSGDGIFWKHWIQTKDGQCGSPLVSTRDGFIVGIHSASNFTNTNNYFTSVPKNFMELLTNQEAQQWVSGWRLNADSVLWGGHKVFMVKPEEPFQPVKEATQL
# Variants of: B1
# Assay: raw area under fraction-flipped curve 0-4 h after induction (AUC4h, not background-subtracted), DNA-recorder readout of cleavage of the substrate (dimensionless); higher = more cleavage of the substrate by the protease variant
# Settings: temperature: 34 °C; time window: 0-4 h after rhamnose induction
# Method: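 In vivo DNA recorder in E. coli TOP10(DE3) ΔrhaA at 34 °C. Each TEVp single-site mutant (parent TEVp 0) is paired with a single-site variant of the 7-mer TEVs (canonical ENLYFQ|S). The substrate sits between flexible linkers in a Bxb1-sfGFP-TEVs-SsrA fusion, so cleavage stabilises Bxb1 and speeds flipping of a recombination array, read by NGS. The value is the raw area under the fraction-flipped curve over 0-4 h after rhamnose induction (AUC4h), with ≥20 reads per time point. It is not background-subtracted; inactive controls average about 0.047.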
# 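Note: Bxb1 expression induced with 0.2% (w/v) L-rhamnose at OD600 near 0.5, cultures sampled hourly, flipped fraction per protease–substrate barcode pair counted by paired-end Illumina sequencing.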
Variant,area with substrate ANLYFQS,area with substrate CNLYFQS,area with substrate DNLYFQS,area with substrate GNLYFQS,area with substrate HNLYFQS,area with substrate INLYFQS,area with substrate KNLYFQS,area with substrate MNLYFQS,area with substrate PNLYFQS,area with substrate SNLYFQS,area with substrate TNLYFQS,area with substrate VNLYFQS,area with substrate WNLYFQS,area with substrate YNLYFQS,area with substrate FNLYFQS,area with substrate NNLYFQS,area with substrate LNLYFQS,area with substrate QNLYFQS,area with substrate RNLYFQS
MGESLFKGPRDYNPISSSICHLTNESDGHTTSLYGIGFGPFIITNKHLFRRNNGTLVVQSLHGVFKVKDTTTLQQHLVDGRDMIIIRMPKDFPPFPQKLKFREPQREERICLVTTNFQTKSMSSMVDDTSCTFPSGDGIFWKHWIQTKDGQCGSPLVSTRDGFIVGIHSASNFTNTNNYFTSVPKNFMELLTNQEAQQWVSGWRLNADSVLWGGHKVFMVKPEEPFQPVKEATQL [S127D],0.0634,0.0584,0.0767,0.0674,0.0591,0.0642,0.0711,0.0853,0.0727,0.0564,0.0461,0.0704,0.0595,0.061,,,,,
MGESLFKGPRDYNPISSSICHLTNESDGHTTSLYGIGFGPFIIKNKHLFRRNNGTLVVQSLHGVFKVKDTTTLQQHLVDGRDMIIIRMPKDFPPFPQKLKFREPQREERICLVTTNFQTKSMSSMVSDTSCTFPSGDGIFWKHWIQTKDGQCGSPLVSTRDGFIVGIHSASNFTNTNNYFTSVPKNFMELLTNQEAQQWVSGWRLNADSVLWGGHKVFMVKPEEPFQPVKEATQL [T44K],0.039,0.0528,0.0407,0.0817,0.0502,0.0474,0.0399,,0.0552,0.0498,,0.0467,0.0467,0.0172,0.0467,0.0433,,,
MGESLFKGPRDYNPISSSICHLTNESDGHTTSLYGIGFGPFIITNKHLFRRNNGTLVVQSLVGVFKVKDTTTLQQHLVDGRDMIIIRMPKDFPPFPQKLKFREPQREERICLVTTNFQTKSMSSMVSDTSCTFPSGDGIFWKHWIQTKDGQCGSPLVSTRDGFIVGIHSASNFTNTNNYFTSVPKNFMELLTNQEAQQWVSGWRLNADSVLWGGHKVFMVKPEEPFQPVKEATQL [H62V],0.0698,0.0634,0.0832,0.0768,0.0611,0.0629,0.0547,,0.0706,,0.0677,,0.0495,,,0.0749,0.0513,0.0358,
MGESLFKGPRDYNPISSSICHLTNESDGHTTSLYGIGFGPFIITNKHLFRRNNGTLVVQSLHGVFKVKDTTTLQQHLVDGRDMIIIRMPKDFPPFPQKLKFREPQREERICLVTTQFQTKSMSSMVSDTSCTFPSGDGIFWKHWIQTKDGQCGSPLVSTRDGFIVGIHSASNFTNTNNYFTSVPKNFMELLTNQEAQQWVSGWRLNADSVLWGGHKVFMVKPEEPFQPVKEATQL [N116Q],0.0421,0.0639,0.085,,0.0499,0.0625,,0.0445,0.0826,,0.0497,0.0839,0.0543,0.0512,0.0699,0.0732,0.0671,,
MGESLFKGPRDYNPISSSICHLTNESDGHTTSLYGIGFGPFIITNKHLFRRNNGTLVVQSLHGVFKVKDTTTLQQHLVDGRDMIIIRMPKDFPPFPQKLKFREPQREERICLVTTNFQTKSMSSMVSDTSCTFPSGDGIFWKHWIQEKDGQCGSPLVSTRDGFIVGIHSASNFTNTNNYFTSVPKNFMELLTNQEAQQWVSGWRLNADSVLWGGHKVFMVKPEEPFQPVKEATQL [T147E],0.0957,0.0604,0.0459,0.0805,0.06,0.0479,0.0643,0.057,0.0453,0.0642,0.0704,,0.059,0.0663,,0.0587,0.0478,,
MGESLFKGPRDYNPISSSICHLTNESDGHTTSLYGIGFGPFIITNKHLFRRNNGTLVVQSLHGVFKVKDTTTLQQHLVDGRDMIIIRMPKDFPPFPQKLKFREPQREERICLVTTNFQTKSMSSMVSDTSCTFPSGDGIFWKHWIQTKDGQCGSPLVSTRDGFIVGIHSASNFTNTHNYFTSVPKNFMELLTNQEAQQWVSGWRLNADSVLWGGHKVFMVKPEEPFQPVKEATQL [N177H],0.062,0.0662,0.0474,,0.0706,0.0395,0.0735,0.0826,,0.058,,,0.0631,0.0845,0.0834,0.0638,,0.0465,0.0676
MGESLFKGPRDYNPISSSICHLTNESDGHTTSLYGIGFGPFIITVKHLFRRNNGTLVVQSLHGVFKVKDTTTLQQHLVDGRDMIIIRMPKDFPPFPQKLKFREPQREERICLVTTNFQTKSMSSMVSDTSCTFPSGDGIFWKHWIQTKDGQCGSPLVSTRDGFIVGIHSASNFTNTNNYFTSVPKNFMELLTNQEAQQWVSGWRLNADSVLWGGHKVFMVKPEEPFQPVKEATQL [N45V],0.0678,0.0521,0.0655,0.0563,0.0562,0.0275,0.0711,0.0597,0.0557,0.0583,0.0608,0.0485,0.059,0.0503,0.0529,,0.067,,
MGESLFKGPRDYNPISSSICHLTNESDGHTTSLYGIGFGPFIITNKHLFRRNNGTLVVQSLHGVFKVKDTTTLQQHLVDGRDMIIIRMPKDFPPFPQKLKFREPQREERICLVTTNFQTKSMSSMVSDTSCTFPSGDGIFWKHWIQTKDGQCGSPLVSTRCGFIVGIHSASNFTNTNNYFTSVPKNFMELLTNQEAQQWVSGWRLNADSVLWGGHKVFMVKPEEPFQPVKEATQL [D161C],0.0616,0.0489,0.0626,,0.0707,,0.0741,0.0598,,,0.0548,0.0621,0.0573,,0.0418,,0.0592,,0.0879
MGENLFKGPRDYNPISSSICHLTNESDGHTTSLYGIGFGPFIITNKHLFRRNNGTLVVQSLHGVFKVKDTTTLQQHLVDGRDMIIIRMPKDFPPFPQKLKFREPQREERICLVTTNFQTKSMSSMVSDTSCTFPSGDGIFWKHWIQTKDGQCGSPLVSTRDGFIVGIHSASNFTNTNNYFTSVPKNFMELLTNQEAQQWVSGWRLNADSVLWGGHKVFMVKPEEPFQPVKEATQL [S4N],0.0713,0.0741,0.0964,,0.0543,0.0488,0.0702,,0.0719,0.0761,0.0874,,0.0472,0.0658,0.0679,,0.0602,,
